Experimental data taken from article PMC8350011, “Interactions between semaphorins and plexin–neuropilin receptor complexes in the membranes of live cells” (The Journal of Biological Chemistry, 2021).

Target: the molecule itself
Assay: PIE-FCCS (pulsed-interleaved excitation fluorescence cross-correlation spectroscopy); single live Cos-7 cells co-expressing eGFP and mCherry fusions, peripheral membrane, no exogenous ligand; 85 to 1245 molecules/μm^2; fraction correlated (fc): median below 0.09 monomer, 0.09-0.17 dimer, above 0.17 higher oligomers (homotypic)

Row | Protein | median fraction correlated (fc) | stoichiometry N
1 | plexin A4 (receptor, Two constructs (eGFP and mCherry fusions); The N1 vectors probably put the fluorescent protein at the C-terminus; also called plexin A4-eGFP; plexin A4-mCh; source: Cos-7, transiently transfected, in the membrane of live cells) not shown | 0.14 | 2
2 | neuropilin-1 (receptor, Two constructs (eGFP fusion in pEGFP-N1, mCherry fusion in pmCh-N1), co-expressed for the homotypic measurements; Nrp1-mCh was used with the plexin-eGFP constructs; The N1 vectors probably put the fluorescent protein at the C-terminus; also called Nrp1; Nrp1-eGFP; source: Cos-7, transiently transfected, in the membrane of live cells) not shown | 0.14 | 
